Results taken from the supplement of paper PMC10338343.
± gives the standard deviation. Only a part is listed here, and it is no random draw.

Each sequence was assayed on MIWI (PIWIL1) piRISC loaded with L1MC piRNA (30 nt) (assay: pre-steady-state target cleavage rate (min^-1); MIWI and MILI are mouse PIWI proteins and EfPiwi is from a freshwater sponge; tags in brackets are library labels; higher = faster piRNA-guided slicing of the target). Conditions: guide: L1MC piRNA 5'p-UAACUAAAUACUAUGCAAGCUGUAGGUCCU; auxiliary factor: 500 nM mouse GTSF1.
Procedure: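 Cleave-'n-Seq: a library of target RNAs (target site embedded in constant flanks, ACAGCATTCCGCGTTAGTGATATCCG... 5' flank; DNA-blocked outside the site) at 0.1 nM was incubated with 1 nM active mouse MILI or MIWI piRISC (synthetic 5'-monophosphorylated piRNA guide) with or without 500 nM mouse GTSF1 at 33 °C for 1 min to 16 h. Uncleaved targets were sequenced and normalised to non-target controls, and the pooled three trials were fitted to a burst-and-steady-state model to give the pre-steady-state cleavage rate (min^-1; k3 is constrained to at most 1e-4). Sequence is the target site only; target names encode pairing extent (gX:gY) and contiguous / 1-mismatch / 2-mismatch / bulge geometry. Fits with R² ≤ 0 are excluded.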
UCCUGGAAGACCUUGCAUAGUAUUUAGUUA was tested, and the “pre-steady-state target cleavage rate” value was 0.399 ± 0.034. For AGGACCUACAGCUAGCAUAGUAUUAAGUUA, the “pre-steady-state target cleavage rate” value was 0.827 ± 0.068. With UCCUGGAACAGGUUGCAUAGUAUUUACUUA the “pre-steady-state target cleavage rate” value was 0.164 ± 0.023. UCCUCCUACUGCAUGCAUAGUAUUUAGUUA was tested, and the “pre-steady-state target cleavage rate” value was 1.14 ± 0.04. For UCCUGGAACAGCUUGCAAAGUAUUUACUUA, the “pre-steady-state target cleavage rate” value was 0.351 ± 0.047. UCCUCCUACAGCUUGCAAUGUAUUUAGAAA was tested, and the “pre-steady-state target cleavage rate” value was 0.116 ± 0.023. UCCUGGAUGUGCUUGCCUAGUAUUUAGUUA was tested, and the “pre-steady-state target cleavage rate” value was 0.189 ± 0.02. UCCUGCUACAGCUUGCAUGUAUUUAGUUA was tested, and the “pre-steady-state target cleavage rate” value was 0.413 ± 0.054. For UGGACCUACUGCUUGCAUAGUAUUUACAAA, the “pre-steady-state target cleavage rate” value was 0.0849 ± 0.014. For UCCUCCUAGAGCUUGCAUAGUAUAUAGUUA, the “pre-steady-state target cleavage rate” value was 0.663 ± 0.08. In the case of UCCUGGAUCAGCUUGCAUAGUAUUUACAAA, the “pre-steady-state target cleavage rate” value is reported as 0.292 ± 0.031. In the case of UCCUGGUACACGUUGCAUAGUAUUUAGUUA, the “pre-steady-state target cleavage rate” value is reported as 0.226 ± 0.05. UGGACCUAGAGCUUGCAUACUAUUUAGUUA was tested, and the “pre-steady-state target cleavage rate” value was 0.218 ± 0.014. AGGACCUUCAGCUUGCAUACUAUUUAGUUA was tested, and the “pre-steady-state target cleavage rate” value was 0.37 ± 0.017. UCCUGCUACAGCUUGCAUAGUAAUUAGUAA was tested, and the “pre-steady-state target cleavage rate” value was 0.213 ± 0.029. In the case of UCCUGCUACAGCUUGCAUAGUAUUAUGUAA, the “pre-steady-state target cleavage rate” value is reported as 0.153 ± 0.042. With UCCUGCUACAGCUUGCUUACUAUUUAGUUA the “pre-steady-state target cleavage rate” value was 0.535 ± 0.031. In the case of UGCACCUACAGCUUGCAUAGUAUUUAGUAA, the “pre-steady-state target cleavage rate” value is reported as 1.17 ± 0.11. For UCCUGGUAGAGCUUGCAUAGUAUUUACUUA, the “pre-steady-state target cleavage rate” value was 0.0611 ± 0.015. In the case of UGGACCUACAGCUUGCAUAGUCAUUUAGUUA, the “pre-steady-state target cleavage rate” value is reported as 0.0177 ± 0.0047. For UCCUCCUAGCAGCUUGCAUAGUAUUUAGUUA, the “pre-steady-state target cleavage rate” value was 1.12 ± 0.046.

Same assay, conditions: guide: L1MC piRNA 5'p-UAACUAAAUACUAUGCAAGCUGUAGGUCCU; auxiliary factor: none (no GTSF1)
With UCCUGGAAGACCUUGCAUAGUAUUUAGUUA the “pre-steady-state target cleavage rate” value was 0.0115 ± 0.0036. For AGGACCUACAGCUAGCAUAGUAUUAAGUUA, the “pre-steady-state target cleavage rate” value was 0.0102 ± 0.0032. UCCUGGAACAGGUUGCAUAGUAUUUACUUA was tested, and the “pre-steady-state target cleavage rate” value was 0.0109 ± 0.0022. UCCUCCUACUGCAUGCAUAGUAUUUAGUUA was tested, and the “pre-steady-state target cleavage rate” value was 0.0233 ± 0.0043. In the case of UCCUGGAACAGCUUGCAAAGUAUUUACUUA, the “pre-steady-state target cleavage rate” value is reported as 0.0229 ± 0.0063. With UCCUGGAUGUGCUUGCCUAGUAUUUAGUUA the “pre-steady-state target cleavage rate” value was 0.0235 ± 0.0064. UCCUGCUACAGCUUGCAUGUAUUUAGUUA was tested, and the “pre-steady-state target cleavage rate” value was 0.00516 ± 0.0026. With UGGACCUACUGCUUGCAUAGUAUUUACAAA the “pre-steady-state target cleavage rate” value was 0.00793 ± 0.0024. With UCCUCCUAGAGCUUGCAUAGUAUAUAGUUA the “pre-steady-state target cleavage rate” value was 0.0142 ± 0.0031. For UCCUGGAUCAGCUUGCAUAGUAUUUACAAA, the “pre-steady-state target cleavage rate” value was 0.00512 ± 0.003. For UCCUGGUACACGUUGCAUAGUAUUUAGUUA, the “pre-steady-state target cleavage rate” value was 0.00313 ± 0.0025. With UGGACCUAGAGCUUGCAUACUAUUUAGUUA the “pre-steady-state target cleavage rate” value was 0.0236 ± 0.006. With AGGACCUUCAGCUUGCAUACUAUUUAGUUA the “pre-steady-state target cleavage rate” value was 0.0343 ± 0.0076. UCCUGCUACAGCUUGCAUAGUAAUUAGUAA was tested, and the “pre-steady-state target cleavage rate” value was 0.00539 ± 0.0022. For UCCUGCUACAGCUUGCUUACUAUUUAGUUA, the “pre-steady-state target cleavage rate” value was 0.0133 ± 0.0034. In the case of UGCACCUACAGCUUGCAUAGUAUUUAGUAA, the “pre-steady-state target cleavage rate” value is reported as 0.0465 ± 0.0097. In the case of UCCUGGUAGAGCUUGCAUAGUAUUUACUUA, the “pre-steady-state target cleavage rate” value is reported as 0.0175 ± 0.0032. In the case of UGGACCUACAGCUUGCAUAGUCAUUUAGUUA, the “pre-steady-state target cleavage rate” value is reported as 0.00444 ± 0.0017. UCCUCCUAGCAGCUUGCAUAGUAUUUAGUUA was tested, and the “pre-steady-state target cleavage rate” value was 0.0448 ± 0.0093.
